Assay results published in PubChem BioAssay AID488969 (Vanderbilt High Throughput Screening Facility, 2010).
Whole data set: some 110,000 compounds, median “z-score” near -0.1, cut for the highest 2% near 2. The list shows a part of the results. Active and inactive are the calls of the source.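 Rule for the calls: active = z-score in the third read window above 3 or below -3; inactive = the rest.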

The compounds below were run against Metabotropic glutamate receptor 8 (Rattus norvegicus) (UniProt P70579) (assay: mGluR8 Gi/Go-coupled signaling modulation – cell-based, rat, thallium flux, HTS, primary screen (AID 488969)). Settings: HEK293 rat mGluR8, GIRK (G protein-gated inwardly rectifying potassium channel) thallium flux, FluoZin2; at 10 µM; stronger effect = higher value; submaximal glutamate (EC20) added with thallium.
Sequence of UniProt P70579 (P70579 whole entry, looked up): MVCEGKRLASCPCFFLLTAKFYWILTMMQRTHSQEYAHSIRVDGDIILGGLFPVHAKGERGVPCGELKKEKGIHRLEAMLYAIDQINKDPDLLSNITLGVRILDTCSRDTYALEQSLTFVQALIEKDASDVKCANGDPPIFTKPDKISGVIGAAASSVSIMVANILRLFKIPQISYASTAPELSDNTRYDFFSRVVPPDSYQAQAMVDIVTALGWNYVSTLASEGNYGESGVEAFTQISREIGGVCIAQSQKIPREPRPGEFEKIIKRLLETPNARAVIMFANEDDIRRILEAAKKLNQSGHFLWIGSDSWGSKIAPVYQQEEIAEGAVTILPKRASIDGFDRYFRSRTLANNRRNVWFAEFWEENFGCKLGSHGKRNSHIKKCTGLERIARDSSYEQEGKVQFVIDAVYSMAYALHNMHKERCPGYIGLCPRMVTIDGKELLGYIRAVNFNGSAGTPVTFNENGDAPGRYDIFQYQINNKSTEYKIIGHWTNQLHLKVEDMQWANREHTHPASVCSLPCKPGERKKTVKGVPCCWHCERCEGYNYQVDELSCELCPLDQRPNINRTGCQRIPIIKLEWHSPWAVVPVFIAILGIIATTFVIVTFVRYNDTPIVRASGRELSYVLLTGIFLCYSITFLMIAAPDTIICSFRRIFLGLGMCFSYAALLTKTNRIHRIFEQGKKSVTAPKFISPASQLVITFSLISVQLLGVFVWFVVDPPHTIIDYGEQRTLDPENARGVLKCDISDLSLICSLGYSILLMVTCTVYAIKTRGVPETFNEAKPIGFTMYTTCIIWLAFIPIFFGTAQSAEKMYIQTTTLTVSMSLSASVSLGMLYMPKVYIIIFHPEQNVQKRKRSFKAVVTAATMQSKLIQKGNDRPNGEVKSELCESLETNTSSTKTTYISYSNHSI
Compound `CN(c1ncc(C(F)(F)F)cc1Cl)n1cc(C(=O)O)c2ccccc2c1=O` has a z-score of -0.0284.
`CCN1C(=O)C2(Nc3ccccc3-c3nc4ccccc4n32)c2cc(OC)ccc21` (stereo not given) gave a z-score of -0.79.
`COC(=O)Cn1ncc2c(C)n(Cc3ccccc3)c(C)c2c1=O` showed a z-score of -0.229.
`COc1ccc(Cl)cc1NC(=O)CN(C)C(=O)CNC(=O)C12CC3CC(CC(C3)C1)C2` was tested, and the z-score was -0.756.
`Cn1c(=O)c2[nH]c(NCCCN3CCOCC3)nc2n(C)c1=O` gave a z-score of 0.667.
With `Cn1c(CN2CCN(CC#N)CC2)c(C#N)c2ccccc21` the z-score was -0.271.
Work on `O=C(NCc1ccco1)c1ccc(Cn2c(=O)c3sccc3n(Cc3ccc(F)cc3)c2=O)cc1` yielded a z-score of -0.219.
For `CCOC(=O)/C(C(=O)Nc1ccccc1Cl)=C1/NC(C)(C)Cc2ccccc21`, the z-score was -0.489.
`CCOC(=O)/C(N=Nc1sc(C(=O)OC)c(C)c1C(=O)OCC)=C(\O)CCl` showed a z-score of -0.104.
`c1ccc(-c2cc3c(nn2)CCc2nonc2-3)cc1` was tested, and the z-score was 0.531.
Compound `CC(=O)c1c(C)nc(-c2ccc(Cl)cc2)nc1N=CN(C)C` has a z-score of -0.179.
In the case of `CC(Oc1ccc(Cl)cc1)C(=O)NNC(=S)NC(=O)c1ccco1` (stereo not given), the z-score is reported as active: 5.62.
For `COc1ccc(N2CCN(C3CC(=O)N(C)C3=O)CC2)cc1` (stereo not given), the z-score was 0.537.
Compound `Cc1ccccc1OCc1nnc(SCC(=O)Nc2ccc3c(c2)oc2ccccc23)n1C` has a z-score of -0.041.
Work on `CCOc1cccc2sc(NC(=O)c3ccc(Br)s3)nc12` yielded a z-score of -0.429.
Compound `COCCCNC(=O)Cn1cc(C(C)=O)c2ccccc21` has a z-score of 0.399.
In the case of `COc1cc2ccccc2c2c1CCCC2=O`, the z-score is reported as -0.304.
In the case of `Nc1cc(N)nc(SCC(=O)Nc2ccccc2)n1`, the z-score is reported as -0.306.
`Cc1cc(C)c(C)c(OCCCn2ccnc2)c1` gave a z-score of -0.369.
`CCOc1c2ccc(C(=O)NCc3ccc4c(c3)OCO4)cc2nn1C` was tested, and the z-score was -0.106.
With `CCCN(Cc1cc2cccc(C)c2[nH]c1=O)C(=O)c1cccc(OC)c1` the z-score was -0.328.
For `COc1ccc(Nc2ccc(N3C(=O)CCCC3=O)cc2[N+](=O)[O-])cc1OC`, the z-score was -0.055.
In the case of `CCOC(=O)c1c(C)n(CC(O)c2ccccc2)c2ccc(O)cc12` (stereo not given), the z-score is reported as -0.41.
`CCC(Sc1nnnn1-c1ccccc1)C(=O)Nc1nc2ccccc2s1` (stereo not given) showed a z-score of 1.04.
`COc1ccc2c(=O)c(-c3ccccc3)c(C)oc2c1` showed a z-score of -0.496.
Compound `Cc1ccc(-n2ncc3c(N4CCC(C(N)=O)CC4)ncnc32)c(C)c1` has a z-score of 0.838.
For `COc1ccc(/C=N/NC(=O)c2ccccc2)cc1CN1CCN(c2ccc(F)cc2)CC1`, the z-score was -0.0421.
Work on `Cc1ncc(CC(=O)n2cc(C(=O)c3cc(F)ccc3O)cn2)s1` yielded a z-score of -1.11.
`CCCC(=O)C1=C(O)C(C(=O)OC)C(C)(C)CC1=Nc1cccc2ccccc12` (stereo not given) showed a z-score of -1.47.
Compound `COc1ccc(NC(=O)[C@H](CCS(C)(=O)=O)N2Cc3ccccc3C2=O)c(OC)c1` has a z-score of -0.315.
Work on `O=C(NNS(=O)(=O)c1ccccc1)c1cnn(-c2ccccc2)c1-n1cccc1` yielded a z-score of -0.00899.
With `O=C(OCC(=O)N1CCC(Cc2ccccc2)CC1)c1ccc[nH]c1=O` the z-score was 1.15.
For `CC(C)n1c2ccccc2c2cc([N+](=O)[O-])ccc21`, the z-score was -0.11.
Work on `O=C(Nc1cnn(C23CC4CC(CC(C4)C2)C3)c1)c1cnn2cccnc12` yielded a z-score of 0.456.
`CC1=CS(=O)(=O)CC1Sc1nc2ccccc2[nH]1` (stereo not given) showed a z-score of -0.0983.
`CC(C)C(=O)NC(=S)Nc1ccccn1` showed a z-score of -0.0457.
In the case of `CCOc1ccccc1NC(=O)Nc1cccc(C(C)=O)c1`, the z-score is reported as active: 3.62.
With `CCOc1ccc(N=C2NC(=O)S/C2=C\c2ccc(O)cc2)cc1` the z-score was 0.108.
For `Cn1cccc1/C=C(/C#N)C(N)=S`, the z-score was -0.0248.
Compound `O=C(O)/C=C/C(=O)Nc1ccccc1SC(F)(F)F` has a z-score of -0.384.
For `CC#CCNCc1ccccc1`, the z-score was 0.0417.
Compound `O=C(c1cccc(N2CCCC2=O)c1)N1CCN(c2ccccc2)CC1` has a z-score of 0.821.
Work on `COc1ccccc1CC(=O)NCCc1ccc(S(N)(=O)=O)cc1` yielded a z-score of 0.117.
`O=c1c2ccccc2nc2n1CCC2` showed a z-score of -0.637.
For `O=C(CSCc1ccc(F)cc1)NC1CCCC1`, the z-score was -1.01.
`CC1(C)Cc2c(c(-c3ccccc3Cl)[nH]c(=O)c2C#N)CO1` gave a z-score of -0.577.
Work on `COc1ccccc1Nc1nc(N)nc(CN2CCOCC2)n1` yielded a z-score of -0.181.
`O=C(N/N=C/c1cccc(OC(=O)c2ccc3c(c2)OCO3)c1)c1cncc(Br)c1` was tested, and the z-score was -0.144.
For `CN1CCN(c2nc(-c3cc4ccccc4o3)cs2)CC1`, the z-score was 0.0553.
`O=C(N1CCOCC1)n1cnc2ccccc21` was tested, and the z-score was 0.157.
`Cc1sc2nc(SCC(=O)N3CCCCC3)[nH]c(=O)c2c1C` gave a z-score of 0.0537.
`CN(c1ccc(C(=O)NCC2CCCO2)cc1)S(C)(=O)=O` (stereo not given) showed a z-score of -0.404.
For `N#Cc1c(NC(=O)CSc2nc(N)cc(=O)[nH]2)sc2c1CCCCCC2`, the z-score was -1.32.
Work on `Cc1ccc(C(=O)NNC(=O)C(C)Sc2nc(N)cc(N)n2)cc1` (stereo not given) yielded a z-score of 0.236.
Work on `Cc1cccc(C2CC(c3ccc(F)cc3)Nc3nc(N)nn32)c1` (stereo not given) yielded a z-score of -0.0506.
